Laboratory results: the supplement of paper PMC3656093
± gives the standard deviation of the averaged measurements. Whole data set: some 1,900 compounds, median “CD40L-induced NF-kB luciferase activity, plate-corrected, relative to DMSO (0) and IKK inhibitor VII (-100) controls” near 0.032, cut for the lowest 2% near -26. The list shows a part of the results.

Tested on: BL2-NFkB-Luc
Assay: CD40L-induced NF-kB luciferase activity, plate-corrected, relative to DMSO (0) and IKK inhibitor VII (-100) controls (% normalized activity); higher = more NF-kB reporter activity (less inhibition)
Settings: 9.4 µM; stimulus: tCD40L 64 ng/ml; 4.5 h
Experimental: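 BL2 B cells with a stable NF-kB response-element luciferase reporter (BL2-NFkB-Luc), 384-well. Cells were pre-incubated with compound at 9.4 uM for 1 h at 37 C, then stimulated with 64 ng/ml trimerized CD40L for 4.5 h; luciferase was read with Steady-Glo. Signal was normalised per plate in Genedata (median DMSO neutral control = 0, median IKK inhibitor VII at 50 uM = -100) with Assay Median plate-pattern correction; duplicate plates.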

| Structure (SMILES) | CD40L-induced NF-kB luciferase activity |
| --- | --- |
| CCCCNc1cc(C(=O)O)cc(S(N)(=O)=O)c1Oc1ccccc1 | -3.37 ± 1.3 |
| Cc1cc(OC(C(=O)O)c2ccccc2)c2c(C)c(Cc3ccccc3)c(=O)oc2c1 (stereo not given) | 1.5 ± 0.14 |
| C[N+]12CCCCC1C(COC(=O)c1ccc3c(c1)OCO3)CCC2 (stereo not given) | -2.37 ± 3.9 |
| CC(=O)N1CC2(C)CN(C(C)=O)CC(C)(C1)C2 | -4.1 ± 4 |
| O=c1ccn([C@@H]2O[C@H](CO)[C@@H](O)[C@H]2O)c(=O)[nH]1 | -6.55 ± 1.5 |
| CCCCCC(O)c1cccc(OCc2ccc3ccccc3n2)c1 (stereo not given) | -8.19 ± 8.3 |
| COc1ccc(C2CC(c3ccc([N+](=O)[O-])cc3)=NN2C(=O)c2ccccc2)cc1OC (stereo not given) | -2.67 ± 1.9 |
| Cc1cc(O)c(C(C)C)cc1C1(c2cc(C(C)C)c(O)cc2C)OC(=O)c2ccccc21 | -36.1 ± 2.9 |
| Cc1ccc(C(=O)COC(=O)c2cccc(N3C(=O)c4c(C)nc5ccccc5c4C3=O)c2)cc1C | 2.73 ± 3.2 |
| CC1(C#CC[N+]2(C)CCCCC2)CCC2C(O1)c1ccccc1OC2(C)C (stereo not given) | -4.46 ± 3 |
| NC(=O)OCC(COC(N)=O)c1ccccc1 | 2.1 ± 3.7 |
| Cc1c(OCC(=O)NC(Cc2c[nH]c3ccc(O)cc23)C(=O)O)ccc2c3c(c(=O)oc12)CCC3 (stereo not given) | 2.12 ± 6.2 |
| Cc1ccnc(NS(=O)(=O)c2ccc(N)cc2)n1 | 1.17 ± 1.4 |
| CC(=O)NC(CC(C)C)C(=O)NC(Cc1ccccc1)C(N)=O (stereo not given) | 0.423 ± 0.34 |
| Cc1cccc(OCC(=O)Nc2ccc(C(=O)NCC(C)C)cc2)c1 | -7.06 ± 0.13 |
| COc1ccc(C(=O)CCN2CCc3cc(OC)c(OC)cc3C2)cc1 | -8.3 ± 0.46 |
| COc1cc(CC(=O)NCCc2ccc(S(N)(=O)=O)cc2)cc(OC)c1OC | -2.35 ± 3.9 |
| Cc1cc(OC(=O)CNC(=O)OC(C)(C)C)c2c(C)cc(=O)oc2c1 | 7.29 ± 0.78 |
| O=C(NCCN1CCOCC1)c1ccc(Cl)cc1 | -15.2 ± 24 |
| Cc1cccc2c(=O)n3c(nc12)CCCCC3 | 5.05 ± 2.7 |
| CC(=O)CCCCn1c(=O)c2c(ncn2C)n(C)c1=O | -7.18 ± 11 |
| O=C1CCCN1CCCn1cnc2c([nH]c3ccc(F)cc32)c1=O | 3.33 ± 4.4 |
| O=C(CCCN1C(=O)/C(=C\c2cccs2)SC1=S)Nc1ccccn1 | -2.54 ± 1.1 |
| O=C(O)CCn1cnc2ccccc2c1=O | 1.38 ± 2.2 |

| Structure (SMILES) | CD40L-induced NF-kB luciferase activity |
| --- | --- |
| CC(=O)N(CCC1(c2ccc(C)cc2)CCOC(C(C)C)C1)Cc1ccco1 (stereo not given) | 5.98 ± 0.67 |
| O=C(Oc1ccccc1)Oc1ccc2c(c1)oc(=O)c1ccccc12 | 15.2 ± 4 |
| Cc1nc(N[C@@H](Cc2c[nH]c3ccccc23)C(=O)O)c2oc3ccccc3c2n1 | 4.71 ± 0.71 |
| CCOC(=O)N1CCc2[nH]c3ccc(C)cc3c2C1 | -8.34 ± 0.66 |
| Oc1ccc(Oc2ncc(Cl)cc2Cl)cc1 | -7.9 ± 14 |
| CCCCCC(=O)O[C@]1(C(C)=O)CC[C@H]2[C@@H]3CCC4=CC(=O)CC[C@]4(C)[C@H]3CC[C@@]21C | -8.91 ± 0.8 |
| O=c1c2[nH]c3ccccc3c2ncn1CCC1=CCCCC1 | -1.06 ± 0.11 |
| Cc1ccccc1NC(=O)NCCc1c[nH]c2ccccc12 | -1.3 ± 2.4 |
| CC(=O)OCC(=O)[C@@]1(O)[C@H](C)C[C@H]2[C@@H]3CCC4=CC(=O)C=C[C@]4(C)[C@@]3(F)[C@@H](O)C[C@@]21C | -27.6 ± 1 |
| Cn1cnc2c1c(=O)n(CC(O)CO)c(=O)n2C (stereo not given) | 0.304 ± 4.1 |
| CC1(C)OC2OC(C(=O)NN=Cc3ccccc3F)C3OC(C)(C)OC3C2O1 (stereo not given) | -1.17 ± 0.32 |
| CCC12CN3CC(CC)(CN(C1)C31C(=O)N(C)c3ccc(C)cc31)C2=O (stereo not given) | -6 ± 8.1 |
| COc1cc2c(cc1OC)C(c1ccccc1)=NCC2 | 0.447 ± 0.87 |
| CCOCCn1c(C(C)O)nc2ccccc21 (stereo not given) | 1.75 ± 7 |
| Cc1occc(=O)c1O | -3.22 ± 1.7 |
| C#C[C@]1(O)CC[C@H]2[C@@H]3CCc4cc(O)ccc4[C@H]3CC[C@@]21C | -7.46 ± 6.8 |
| O=C(O)c1ccc(OCCn2ccnc2)cc1 | 2.76 ± 1.1 |
| Cc1ccc(S(=O)(=O)Oc2ccccc2C=NN=C(N)N)cc1 | -1.88 ± 1.6 |
| CC(C(=O)O)c1cccc(C(=O)c2ccccc2)c1 (stereo not given) | 3.92 ± 1.4 |
| Cc1oc2cc(O)cc(O)c2c(=O)c1-c1ccc2c(c1)OCCCO2 | 22.9 ± 3 |
| COc1ccc(C(=O)NCCC2=CCCCC2)cc1[N+](=O)[O-] | 8.23 ± 1.4 |
| COc1cc(SC)ccc1C(=O)NC(C)C | 0.373 ± 2.3 |
| CCOC(=O)c1ncn2c1CN(C)C(=O)c1cc(F)ccc1-2 | -5.59 ± 1.8 |
| CC(=O)N1CCN2C(=O)C1CCCC(=O)c1cc(C(C)C)ccc12 (stereo not given) | 4.18 ± 2.8 |

| Structure (SMILES) | CD40L-induced NF-kB luciferase activity |
| --- | --- |
| CCCC1O[C@@H]2C[C@H]3[C@@H]4CCC5=CC(=O)C=C[C@]5(C)[C@H]4[C@@H](O)C[C@]3(C)[C@]2(C(=O)CO)O1 (stereo not given in full) | -26 ± 0.65 |
| CC1(C)Cc2nc3oc4c(NCc5ccccc5)ncnc4c3cc2CO1 | 2 ± 2.6 |
| O=C(CNC(=O)OCc1ccccc1)Oc1cc2oc(=O)cc(-c3ccccc3)c2cc1Cl | -6.69 ± 1.5 |
| Cc1ccccc1NC(=O)c1c(C)cc(=O)oc1C | -17.1 ± 22 |
| Cc1ccc([N+](=O)[O-])cc1NC1OC(CO)C(O)C1O (stereo not given) | -9.75 ± 8.3 |
| Cc1cc(NS(=O)(=O)c2ccc(N)cc2)no1 | 0.679 ± 6.3 |
| COc1cc(NC(=O)N[C@@H](Cc2ccccc2)C(=O)O)cc(OC)c1 | 0.704 ± 4.7 |
| CCNC(=O)c1sc2cc(C)ccc2c1Cl | 58.4 ± 4.3 |
| NS(=O)(=O)c1cc2c(cc1Cl)NC(CSCc1ccccc1)=NS2(=O)=O | 0.586 ± 0.24 |
| Cn1c2ccc(CC(=O)O)cc2c2cc(CC(=O)O)ccc21 | 3.71 ± 0.098 |
| OCC1(CCOc2ccccc2)CCN(CCCn2cccn2)CC1 | -3.68 ± 2.7 |
| CC1(C)S[C@@H]2[C@H](NC(=O)C(C(=O)O)c3ccccc3)C(=O)N2[C@H]1C(=O)O (stereo not given in full) | -4.22 ± 1.9 |
| CC(=O)[C@@]1(O)CC[C@H]2[C@@H]3C[C@H](C)C4=CC(=O)CC[C@]4(C)[C@H]3CC[C@@]21C | -15.7 ± 2.4 |
| CC(C)=CCC(C)(C)C=NNC(N)=O | -1.56 ± 2.4 |
| Cc1ccc2nc(NC3=NC(CC(=O)O)C(=O)N3)nc(C)c2c1 (stereo not given) | -4.76 ± 0.3 |
| COc1ccc2[nH]c3c(c2c1)CCn1c-3nc2ccccc2c1=O | 32.3 ± 4.5 |
| COc1cc2c(cc1OC)C(C)=NC1(CCCCC1)C2 | -5.39 ± 1.2 |
| COc1cc2c3c(c1)C1(C(=O)N3C(C)(C)C=C2C)C(C#N)=C(N)Oc2cc(C)oc(=O)c21 (stereo not given) | 4.59 ± 4.2 |
| COc1ccc(C(C)N2CC34C=CC(O3)C(C(=O)OCC(C)C)C4C2=O)cc1 (stereo not given) | -1.13 ± 5.3 |
| Nc1c2c(nc3ccccc13)CCCC2 | -2.63 ± 2.6 |
| CCNC(=O)c1c(N)sc2c1CCCCC2 | 2.16 ± 2.4 |
| O=C1OC(Nc2ccc3c(c2)OCO3)c2ccccc21 (stereo not given) | -15.2 ± 0.48 |
